Results as given in US20080075796A1, “Compositions and Methods for Controlling Insects” (TyraTech, Inc., priority 2003, published 2008).
Several values for one entry are separate records, joined by “and”; a condition that tells them apart may be missing. Equal values may be shown once.

Experiments:
[1] = test system: Drosophila melanogaster Or83b olfactory receptor, SEQ ID NO: 6; assay: Interaction of plant essential oils with Or83b receptor binding site (3H-tyramine); details: membranes, FIGS. 16, 18-21
Protocol: (§1) Total RNA is prepared from the head and antenna of wild type Drosophila melanogaster using Trizol Reagent (Invitrogen). They are homogenized in the Trizol using a motor driven teflon pestle and glass homogenizer. RNA is then prepared as per the manufacturer's instructions and includes removal of proteoglycans and polysaccharides by precipitation. The total RNA is reverse transcribed using oligo-dT as a primer and MuLV reverse transcriptase (Applied Biosystems). […] The Sense oligonucleotides contain Not I sites and the antisense oligonucleotides contain Sac II sites. Both restriction sites are indicated by underlined nucleotide. […] For PCR amplification of Or83b, Vent polymerase (New England Biolabs) is used with the following conditions: about 95° C., about 5 min for about 1 cycle; about 95° C., about 30 sec; and about 70° C., about 90 sec for about 40 cycles; and about 70° C., about 10 min for about 1 cycle. For PCR amplification of Or43a, the Failsafe PCR premix selection kit (Epicentre Technologies) is used with the following conditions: about 95° C., about 5 mill for about 1 cycle; about 95° C., about 30 sec; about 60° C., about 30 sec and about 70° C., about 90 sec for about 50 cycles; and about 70° C., about 10 min for about 1 cycle. […] The PCR products are digested with Sac II and Not I, gel purified and ligated into pAC 5.1/N5 His B (Invitrogen). Inserts are sequenced on both strands by automated fluorescent sequencing (Vanderbilt Cancer Center).
(§2) To address whether Or83b receptor and Or43a receptor contain a specific binding site for tyramine, membranes expressing Or83b receptor or Or43a receptor are prepared from cells expressing either receptor, as described above, and used for competitive binding with ^3H-tyramine. The binding assay protocol is exactly as described for cells expressing TyrR, as described above.
(§3) The cells expressing one of the olfactory receptors are used to investigate the interaction of plant essential oils with these receptors and the signaling cascade downstream of each receptor.
(§4) For the binding activity, membranes are prepared from each cell model and used to investigate the interaction of plant essential oil with the receptor binding site.

[2] = test system: Drosophila melanogaster Or43a olfactory receptor, SEQ ID NO: 4; assay: Interaction of plant essential oils with Or43a receptor binding site (3H-tyramine); details: membranes, FIGS. 16, 17, 19-21
Protocol: as §1, §2, §3, §4

[3] = test system: Or83b and Or43a receptors; assay: Interaction of plant essential oils with olfactory receptor binding site (membranes, ^3H-tyramine); set-up: species or system Drosophila melanogaster; details: membranes incubated with ^3H-tyramine
Protocol: as §3, §4

[4] = biological target: T1, Or43a receptor (Drosophila melanogaster, UniProt P81917, L154V); assay: Intracellular Ca^2+ mobilization in Schneider cells expressing Or43a receptor; format: cell-based; details: before vs approximately 150 seconds after treatment
T1 construct: His (from vector pAc5.1/V5-His B) (C); expressed in transfected cells
Protocol: Intracellular calcium ion concentrations ([Ca^2+]i) are measured by using the acetoxymethyl (AM) ester of the fluorescent indicator fura-2 (Enan, et al., Biochem. Pharmacol vol 51, 447-454). In this study, cells expressing tyramine receptor are grown under standard conditions. A cell suspension is prepared in assay buffer (140 mM NaCL, 10 mM HEPES, 10 mM glucose, 5 mM KCl, 1 mM CaCl2, 1 mM MgCl2) and cell number adjusted to about 2×10^6 cells per ml. Briefly, about 1.0 ml cell suspension (about 2×10^6 cells) is incubated with about 5 μM Fura 2/AM for about 30 min at about 28° C. After incubation, the cells are pelleted at about 3700 rpm for about 10 sec at room temperature and then resuspended in about 1.5 ml assay buffer. [Ca^2+]i changes are analyzed in spectrofluorometer in the presence and absence of test chemicals. Excitation wave lengths are about 340 nm (generated by Ca^2+-bound fura-2) and about 380 nm (corresponding to Ca^2+-free fura-2). The fluorescence intensity is monitored at an emission wave length of about 510 nm. No absorbance of fluorescence artifacts are observed with any of the compounds used. The ratio of about 340/380 nm is calculated and plotted as a function of time.
Intracellular Ca^2+ levels are measured using the method described above in Example 3.
Changes in intracellular Ca^2+ levels are calculated based on the difference between the 340/380 fluorescence ratios before and after approximately 150 seconds of the treatment.

[5] = test system: farm ants; assay: Repellent effect on farm ants (treated filter paper); format: in vivo
Protocol: Adult insect are randomly selected for testing the repellent effect of compositions and are not individually marked. About 5 insects per replicate are used. About 3 replicates are used for each treatment. Untreated control tests are included with only solvent (acetone) application to an equal sized population/replications, held under identical conditions. A filter paper (about 80 cm^2) is treated with the composition (about 100 mg in […] acetone). After about 3 min of air drying, the filter paper is placed in a dish and repellency against insects is performed. Insects are released to the dish, one insect at a time at the far end of the dish. Using one or more stopwatches, the time spent on either the filter paper or the untreated surface of the dish is recorded up to about 300 seconds. Repellency ratio (RR) is calculated as follows: RR=[(time on control surface−time on treated surface)/total time of test].
The repellent effect of various plant essential oils is tested by treating a filter paper with the test oils. After about five minutes at room temperature, the paper is placed in a dish and ants are introduced one at a time. […] Oils are tested alone. Additionally, oils are mixed to form compositions, which are then tested.

[6] = Day 0, time on treated surface of up to about 300 seconds

T1 sequence (P81917 whole entry L154V): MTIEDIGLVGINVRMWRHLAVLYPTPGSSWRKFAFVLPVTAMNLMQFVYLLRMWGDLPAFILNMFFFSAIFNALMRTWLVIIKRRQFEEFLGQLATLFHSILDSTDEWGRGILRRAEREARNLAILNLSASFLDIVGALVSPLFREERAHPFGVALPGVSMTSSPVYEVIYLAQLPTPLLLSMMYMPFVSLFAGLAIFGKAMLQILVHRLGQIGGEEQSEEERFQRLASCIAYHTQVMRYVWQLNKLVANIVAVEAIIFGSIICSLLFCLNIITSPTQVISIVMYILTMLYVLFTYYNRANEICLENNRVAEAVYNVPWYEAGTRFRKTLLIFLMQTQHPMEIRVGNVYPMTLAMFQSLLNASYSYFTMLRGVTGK

C=CCc1ccc(O)c(OC)c1 [eugenol]
interaction with the olfactory receptor [1]: interact
interaction with the olfactory receptor [2]: interact
interaction with the olfactory receptors [3]: interact with the olfactory receptors
change in intracellular Ca^2+ levels (340/380 fluorescence ratio) [4]: calcium mobilization

O=CCc1ccccc1 [phenyl acetaldehyde]
interaction with the olfactory receptor [1]: interact
interaction with the olfactory receptor [2]: interact
interaction with the olfactory receptors [3]: interact with the olfactory receptors
change in intracellular Ca^2+ levels (340/380 fluorescence ratio) [4]: calcium mobilization

CC(=O)OCc1ccc2c(c1)OCO2 [piperonyl acetate]
interaction with the olfactory receptor [1]: interact
interaction with the olfactory receptor [2]: interact
interaction with the olfactory receptors [3]: interact with the olfactory receptors
change in intracellular Ca^2+ levels (340/380 fluorescence ratio) [4]: calcium mobilization

CC(C)=CCC/C(C)=C/CO [geraniol]
interaction with the olfactory receptor [1]: interact
interaction with the olfactory receptor [2]: interact
interaction with the olfactory receptors [3]: interact with the olfactory receptors
change in intracellular Ca^2+ levels (340/380 fluorescence ratio) [4]: calcium mobilization
Repellency %, R % ([5]; Day 0): 54.0%
sec. on T surface [5, 6]: 69 s and 69.0 s
Repellency %, R % ([5]; Day 1): 14.0%
sec. on T surface ([5]; Day 1): 129.0 s and 129.4 s

Cc1ccc(C(C)C)c(O)c1 [thymol]
interaction with the olfactory receptor [1]: interact
interaction with the olfactory receptor [2]: interact
interaction with the olfactory receptors [3]: interact with the olfactory receptors
Repellency %, R % ([5]; Day 0): 58.3%
sec. on T surface [5, 6]: 62.6 s and 62.0 s
Repellency %, R % ([5]; Day 1): 30.4%
sec. on T surface ([5]; Day 1): 104.4 s
